# According to PubChem BioAssay AID1745845 (National Center for Advancing Translational Sciences (NCATS), 2022):
# Hit rate of the full screen: of about 360,000 compounds, about 2,600 (0.72%) were called active. Inconclusive results, whose numbers are uncertain, are shown with a selection of clear calls. Calls follow the shape of the dose curve; as a rule, active = well fitted inhibition curve with a large enough effect; inconclusive = small, poorly fitted or top-dose-only effect; inactive = no such curve, though single readings can be large or run the other way. Potencies beside an inconclusive call are fits to weak or partial responses and may not hold up.
# Test: Primary qHTS for Inhibitors of ATXN expression; also: nearly all actives have a fitted effect of over 55% in size
# Details: HEK-293 ATXN2-luciferase reporter, luminescence, 24 h; activity change, negative = inhibition: at 57 µM (top of the series)
# Summary of the method: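 qHTS (up to 57 uM final) was run with 24 h compound exposure of reporter cells at 37 °C. Each well was multiplexed: SteadyGlo luminescence measured ATXN2-luciferase expression after a fluorogenic Gly-Phe-AFC viability readout (25 uM final).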
# % is scaled to controls: 0 for no effect and ±100 for the full control effect; potency is read from the fitted curve at half-maximal effect; tags tell the direction and shape of the fitted curve.
SMILES,Potency,"activity change, negative = inhibition"
CCCCN(C)C(=O)CCCCn1c(=O)[nH]c2cc(OCC)c(OCC)cc2c1=O,"inconclusive: 28.2 µM [inhibitor, partial curve, poor fit]",–
Cc1ccccc1Nc1c(-c2cccc(O)c2)nc2ccc(Br)cn12,"inconclusive: 31.6 µM [inhibitor, partial curve, poor fit]",–
O=C(CSc1nccn1-c1ccc(Cl)cc1)N1CCCc2ccccc21,–,inactive: 0.795%
O=C(Nc1ccccn1)C1CCN(S(=O)(=O)c2ccc(Cl)cc2)CC1,–,inactive: 5.45%
c1c2c(cc3sc(N4CCCCC4)nc13)OCCO2,active: 7.94 µM,–
COc1ccc(CNC(=S)N/N=C/c2ccc(O)c(OC)c2)cc1,–,inactive: 11.9%
Cc1c(CNC2CCCCCC2)c(C(=O)O)c(C)n1Cc1c(F)cccc1Cl,–,inactive: 3.75%
COc1ccc(N2CCN(CCNC(=O)c3ccc4c(c3)[nH]c(=S)n3c5ccccc5nc43)CC2)cc1,–,inactive: -18.9%
O=[N+]([O-])c1cc(S(=O)(=O)Nc2cccc(Cl)c2)ccc1N=Nc1c(O)[nH]c2ccccc12,"inconclusive: 28.2 µM [inhibitor, single point]",–
CCCOC(=O)c1c(N)sc2c1CCC2,"inconclusive: 39.8 µM [inhibitor, partial curve, poor fit]",–
COc1ccc(NC(=O)Cn2cnc3c(nc4n3CCCCC4)c2=O)c(OC)c1,–,inactive: 5.68%
COc1ccc(C(=O)Nc2onc3c2CCCC3)cc1,"inconclusive: 14.1 µM [inhibitor, single point]",–
CN1CCC(N(C)S(=O)(=O)c2ccc(NC(=O)COc3ccc(Br)cc3Cl)cc2)CC1,"inconclusive: 20 µM [inhibitor, partial curve]",–
CCn1c(CCC(=O)Nc2nc3c(s2)CCCC3)nc2cc(S(=O)(=O)N(C)C)ccc21,"inconclusive: 14.1 µM [inhibitor, partial curve]",–
Fc1ccccc1CNc1nc(-c2cccnc2)nc2ccccc12,"inconclusive: 35.5 µM [inhibitor, single point]",–
COc1ccc(C(=O)N(C)c2ccccc2C(=O)NCCc2ccccc2)cc1,–,inactive: -36.7%
COc1ccc2c(c1)CCc1c(C(=O)Nc3c(C)nn(Cc4ccccc4Cl)c3C)noc1-2,"inconclusive: 35.5 µM [inhibitor, single point]",–
CCCC(NC(=O)CCl)c1ccccc1 (stereo not given),–,inactive: 0.136%
CCOc1ccc(-c2cn[nH]c2N)cc1,–,inactive: 5.83%
O=C1CC(c2ccccc2)=NN1c1ccc([N+](=O)[O-])cc1,"inconclusive: 33.6 µM [inhibitor, single point]",–
CC(C)(CC(=O)c1ccccc1)CC(=O)c1ccccc1,–,inactive: -23.6%
Cc1nc2c(OCc3ccc(F)cc3)cccn2c1N(C)C(=O)CCC1CCCC1,"inconclusive: 28.2 µM [inhibitor, single point]",–
NC1=NC(=Nc2cccc(Cl)c2)c2ccccc21,"inconclusive: 35.5 µM [inhibitor, single point]",–

SMILES,Potency,"activity change, negative = inhibition"
Cc1occc1C(=O)N/N=C/c1ccc(Cl)c([N+](=O)[O-])c1,–,inactive: 46.3%
CCOC(=O)c1c(C)[nH]c(C)c1C(=O)CSc1nc2ccccc2n1CCC#N,–,inactive: -7.03%
CC1(C(=O)Nc2cccc(C#N)c2)CCN1C(=O)Cc1ccc(-c2ccccc2)cc1 (stereo not given),"inconclusive: 14.1 µM [inhibitor, partial curve, poor fit]",–
O=C(NCc1cccs1)c1ccc(CSc2nc3ccncc3n2Cc2cccc(F)c2)cc1,–,inactive: -20.9%
Cc1nonc1C(=O)N/N=C/c1ccc(O)cc1O,"inconclusive: 39.8 µM [inhibitor, partial curve, poor fit]",–
COc1ccc([C@H]2CC(=O)C=C(c3cccc(C(C)C)c3)C2)cc1,–,inactive: 9.62%
CCCCc1cc(=O)oc2cc(OCC(=O)N3CCC(C(=O)O)(c4ccccc4)CC3)ccc12,"inconclusive: 0.891 µM [inhibitor, full curve, poor fit]",–
COc1ccccc1NC(=O)C1CCN(S(=O)(=O)c2cccs2)CC1,"inconclusive: 33.6 µM [inhibitor, partial curve, poor fit]",–
Cc1ccc(C(=O)Nc2ccc3c(c2)N(C)C(=O)c2ccccc2S3)cc1F,"inconclusive: 10 µM [inhibitor, partial curve]",–
Cc1sc2ncnc(Sc3nnnn3-c3ccc(Cl)cc3)c2c1C,"inconclusive: 39.8 µM [inhibitor, single point]",–
CC1(Cc2ccc(OC(F)(F)F)cc2)C(=O)Nc2ccc(OC(F)(F)F)cc21 (stereo not given),"inconclusive: 39.8 µM [inhibitor, single point]",–
C=Cc1ccc(Cn2c(=O)n(-c3ccccc3C)c(=O)c3c4c(sc32)CN(C(C)=O)CC4)cc1,"inconclusive: 31.6 µM [inhibitor, single point]",–
O=c1cnn(Cc2ccc(Cl)c(Cl)c2)c2ccccc12,"inconclusive: 35.5 µM [inhibitor, single point]",–
O=C(Nc1ccc(Br)cc1)c1ccc(Br)c(S(=O)(=O)NCc2ccccc2)c1,"inconclusive: 31.6 µM [inhibitor, single point]",–
CCOC(=O)c1c(C)c(C(=O)NCCc2ccc(OC)cc2)c(C)n1CC,–,inactive: -22.6%
O=C1NC[C@H](c2ccccc2)OC(=O)[C@H](Cc2ccc(F)cc2)C/C=C\C[C@H]1CC(=O)N(CCO)Cc1ccccc1,active: 31.6 µM,–
CN(C(=O)c1cccc(Nc2ccc(-c3ccc4c(c3)OCCO4)nn2)c1)C1CCCCC1,"inconclusive: 39.8 µM [inhibitor, single point]",–
Cc1ccc(S(=O)(=O)N2CCC[C@H]2C(=O)Nc2ccccc2Cl)cc1,–,inactive: -16%
CCc1ccc2[nH]c(=O)c(C3C(C#N)=C(N)Oc4c3ccc3cccnc43)cc2c1 (stereo not given),"inconclusive: 39.8 µM [inhibitor, single point]",–
Cc1nc(C(=O)NCc2ccccc2)sc1C1(C)CC(c2ccccc2)=NO1 (stereo not given),–,inactive: 5.9%
CCOC(=O)c1c(-c2ccccc2)oc2ccc(NS(=O)(=O)c3ccccc3)cc12,"inconclusive: 39.8 µM [inhibitor, single point]",–
O=C(Nc1cc(-c2nc3ccccc3o2)ccc1Cl)c1cccc2c(Cl)cccc12,–,inactive: 10.3%
